From patent publication US20170173112A1 (Daiichi Sankyo, published 2017) come the findings set out here.

The target of test [1] is T1, human PCSK9 (SEQ ID NO: 34) containing a C-terminal FLAG tag (human, UniProt Q8NBP7 31-152; Q8NBP7 153-692). The experiment in a line: cell-based or functional assay.
Test [2] addresses T1, human PCSK9 (SEQ ID NO: 34) containing …. The experiment in a line: binding ELISA, biotinylated PCSK9 on Neutravidin plate.
For test [3], the target named is T2, gain of function hPCSK9_D374Y mutant (human, UniProt Q8NBP7 31-152; Q8NBP7 153-692).
T2 construct: also called human PCSK9_D374Y; not shown: FLAG tag
Described as above.

The target in test [4] is T3, mouse PCSK9 (mouse, UniProt Q80W65 35-694, limits assumed).
T3 construct: biotinylated in the assays; also called mPCSK9
Described as above.

In test [5] the target is T1, human PCSK9 (SEQ ID NO: 34) containing …. Put plainly: SPR (Biacore T200), biotinylated PCSK9 captured, 1:1 model.
For test [6] the target is unchanged. The experiment in a line: competition ELISA, 25 nM hPCSK9 pre-incubated with mutein, LDL-R-coated plate.
The target of test [7] is T2, gain of function hPCSK9_D374Y mutant. The experiment in a line: competition ELISA, 0.25 nM hPCSK9_D374Y pre-incubated with mutein, LDL-R-coated plate.
The target in test [8] is T1, human PCSK9 (SEQ ID NO: 34) containing …. The experiment in a line: cell-based or functional assay. This is another data set of the same source.
For test [9] the target is unchanged. Put plainly: competition ECL assay, 10 pM hPCSK9-Bio, plate coated with benchmark antibody (SEQ ID NOs: 29 and 33) as competitor.
For test [10] the target is unchanged. The experiment in a line: SPR (Biacore T200), hPCSK9-Bio captured, 1:1 model.
Test [11] shares this target. The experiment in a line: SPR (Biacore T200), biotinylated PCSK9 captured, 1:1 model. This is another data set of the same source.
Test [12] has as its target T3, mouse PCSK9. The test is described as above.
Test [13] addresses T1, human PCSK9 (SEQ ID NO: 34) containing …. Put plainly: SPR (Biacore T200), biotinylated human PCSK9 captured, 1:1 model.

T3 sequence (Q80W65 35-694 limits assumed): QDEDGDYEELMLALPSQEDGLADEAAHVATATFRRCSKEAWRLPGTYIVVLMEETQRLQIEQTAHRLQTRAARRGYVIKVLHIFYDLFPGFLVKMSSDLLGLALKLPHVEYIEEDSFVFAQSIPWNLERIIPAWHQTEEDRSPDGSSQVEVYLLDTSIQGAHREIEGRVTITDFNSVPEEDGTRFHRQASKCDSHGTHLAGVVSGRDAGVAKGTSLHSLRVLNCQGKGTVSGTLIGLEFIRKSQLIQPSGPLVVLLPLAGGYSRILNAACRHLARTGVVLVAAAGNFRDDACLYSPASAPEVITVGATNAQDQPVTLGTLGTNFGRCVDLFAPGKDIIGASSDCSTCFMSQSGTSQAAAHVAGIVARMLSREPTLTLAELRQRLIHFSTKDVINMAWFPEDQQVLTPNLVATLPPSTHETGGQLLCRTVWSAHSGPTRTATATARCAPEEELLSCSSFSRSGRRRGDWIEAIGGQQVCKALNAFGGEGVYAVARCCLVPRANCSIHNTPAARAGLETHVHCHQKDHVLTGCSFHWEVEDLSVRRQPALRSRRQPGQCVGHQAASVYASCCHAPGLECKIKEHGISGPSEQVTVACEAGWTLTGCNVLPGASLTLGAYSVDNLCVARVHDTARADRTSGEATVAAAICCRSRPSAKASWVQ

B1: lipocalin mutein SEQ ID NO: 3 (designed binder)
chain: ASDEEIQDVSGTWYLKAMTVDFSRGDAIWTSVTPMTLTTLEGGNLEAKVTMMYAGRSQEVKAVLEKTDEPGKYTAMGGSHVAYIIRSHVKDHYIFYSEGPYQGAPVPGVWLVGRDPKNNLEALEDFEKAAGARGLSTESILIPRQSETSSPGSAWSHPQFEK
notes: human tear lipocalin mutein
Turning to B1, the “IC50, restoration of labeled LDL uptake in HepG2 cells with 100 nM hPCSK9” value (from here on “IC50, restoration of labeled LDL uptake”) in [1] was 71.8 nM. In addition, the EC50 in test [2] was found to be 1.6 nM; in [3], 1.2 nM; in the test with mouse PCSK9 [4], 4.4 nM. Moreover, in test [5], the Kd was found to be 0.85 nM. In test [5], the koff was 0.00015 s⁻¹. The molecule further returned a kon in test [5] of 177000 M⁻¹ s⁻¹. Further, the IC50 in test [6] was 13.8 nM; in test [7], 0.13 nM.

B2: PEGylated lipocalin mutein variant SEQ ID NO: 32 (designed binder)
chain: ASDEEIQDVSGTWYLKAMTVDFSRGDAIWTSVTPMTLTTLEGGNLEAKVTMMYAGRSQEVKAVLEKTDEPGKYTVMGGSHVASIIRSHVKDHYIFYPEGPYQGAPVPGVWLVGRDPKNNLEALEDFEKAAGARGLSTESILIPRQSETSSPGSAWSHPQFEK
modifications: branched PEG40 conjugated; residue not stated
Take B2: in test [8], the “IC50, LDL-R depletion assay on HepG2 cells with 100 nM PCSK9” value (from here on “IC50, LDL-R depletion assay”) worked out at 70.7 nM and the “IC90, LDL-R depletion assay on HepG2 cells with 100 nM PCSK9” value (from here on “IC90, LDL-R depletion assay”) is 148 nM. In [9], this molecule came in with an IC50 of 0.37 nM.

B3: lipocalin mutein SEQ ID NO: 20 (designed binder)
chain: ASDEEIQDVSGTWYLKAMTVDFSRGDAIWTSVTPMTLTTLEGGNLEAKVTMMYAGRSQEVKAVLEKTDEPGKYTVMGGSHVASIIRSHVKDHYIFYPEGPYQGAPVPGVWLVGRDPKNNLEALEDFEKAAGARGLSTESILIPRQSETSSPGSAWSHPQFEK
notes: human tear lipocalin mutein
Take B3: in [8], the “IC50, LDL-R depletion assay” value amounted to 91.7 nM and the “IC90, LDL-R depletion assay” value is 192 nM. Moreover, in test [10], the Kd turned out to be 0.31 nM, the koff amounted to 9.73e-05 s⁻¹ and the on-rate (kon) turned out to be 313000 M⁻¹ s⁻¹. In test [11], this molecule had a Kd of 0.31 nM, a koff of 7.79e-05 s⁻¹ and a kon of 249000 M⁻¹ s⁻¹. In the test with mouse PCSK9 [12], this molecule yielded a Kd of 1.98 nM, a koff of 0.000351 s⁻¹ and a kon of 177000 M⁻¹ s⁻¹. In addition, the IC50 in [9] was 0.11 nM.

B4: lipocalin mutein SEQ ID NO: 13 (designed binder)
chain: ASDEEIQDVSGTWYLKAMTVDFSRGDAIWTSVTPMTLTTLEGGNLEAKVTMMYAGRSQEVKAVLERTDEPGKYTTMGGSHVAYIIRSPVKDHYIFYSEGPHQGAPVPGVWLVGRDPKNNLEALEDFEKAAGARGLSTESILIPRQSETSSPGSAWSHPQFEK
notes: human tear lipocalin mutein
Turning to B4, in [8], the “IC50, LDL-R depletion assay” value stood at 103 nM and the “IC90, LDL-R depletion assay” value amounted to 216 nM. In test [10], this molecule had a Kd of 0.32 nM, a koff of 8.77e-05 s⁻¹ and a kon of 275000 M⁻¹ s⁻¹. In test [11], this molecule yielded a Kd of 0.32 nM, a koff of 8.31e-05 s⁻¹ and a kon of 262000 M⁻¹ s⁻¹. In the test with mouse PCSK9 [12], this molecule returned a Kd of 1.77 nM, a koff of 0.000312 s⁻¹ and a kon of 176000 M⁻¹ s⁻¹. Besides, in test [13], the Kd worked out at 0.24 nM, the koff came to 6.84e-05 s⁻¹ and the kon was found to be 281000 M⁻¹ s⁻¹. This molecule also gave an IC50 in test [9] of 0.16 nM.

B5: PEGylated lipocalin mutein variant SEQ ID NO: 30 (designed binder)
chain: ASDEEIQDVSGTWYLKAMTVDRFKIASWPRSVTPMTLTTLEGGNLEAKVTMNWWGRSQEVKAVLERTDEPGKYTAQGDRHVAYIIRSHVKDHYIFYSEGNLQGETVPGVWLVGRDPKNNLEALEDFEKAAGARGLSTESILIPRQSETSSPGSAWSHPQFEK
modifications: branched PEG40 conjugated; residue not stated
Take B5: in test [8], the “IC50, LDL-R depletion assay” value stood at 82.6 nM and the “IC90, LDL-R depletion assay” value was 173 nM. The molecule further gave an IC50 in [9] of 0.19 nM.

B6: lipocalin mutein SEQ ID NO: 7 (designed binder)
chain: ASDEEIQDVSGTWYLKAMTVDRFKIASWPRSVTPMTLTTLEGGNLEAKVTMNWWGRSQEVKAVLEKTDEPGKYTAQGGSHVAYIIRSHVKDHYIFYSEGNRQGDPVPGVWLVGRDPKNNLEALEDFEKAAGARGLSTESILIPRQSETSSPGSAWSHPQFEK
notes: human tear lipocalin mutein
Turning to B6, the “IC50, restoration of labeled LDL uptake” value in [1] was 95.8 nM. In addition, the EC50 in test [2] amounted to 2.8 nM; in [3], 0.8 nM; with mouse PCSK9 [4], 16.3 nM. Moreover, binding in test [5] was characterised by a dissociation constant (Kd) of 6.69 nM. In test [5], the koff was determined as 0.00484 s⁻¹. Moreover, the kon in test [5] stood at 724000 M⁻¹ s⁻¹. Besides, the concentration for half-maximal inhibition (IC50) amounted to 13.2 nM in test [6] and 0.13 nM in [7].

B7: lipocalin mutein SEQ ID NO: 22 (designed binder)
chain: ASDEEIQDVSGTWYLKAMTVDRFKIASWPRSVTPMTLTTLEGGNLEAKVTMNWWGRSQEVKAVLERTDEPGKYTAQGDRHVAYIIRSHVKDHYIFYSEGNLQGETVPGVWLVGRDPKNNLEALEDFEKAAGARGLSTESILIPRQSETSSPGSAWSHPQFEK
notes: human tear lipocalin mutein
B7: in [8], the “IC50, LDL-R depletion assay” value came out at 76.9 nM. Further, in [8], the “IC90, LDL-R depletion assay” value is 161 nM. The Kd amounted to 0.35 nM in test [10], 0.39 nM in [11], 1.99 nM with mouse PCSK9 [12] and 0.37 nM in [13]. Moreover, the koff in test [10] stood at 0.000263 s⁻¹; in test [11] it was 0.000258 s⁻¹; in the test with mouse PCSK9 [12], 0.000638 s⁻¹; in test [13] it was 0.000219 s⁻¹. The kon in test [10] was found to be 753000 M⁻¹ s⁻¹; in [11], 663000 M⁻¹ s⁻¹; with mouse PCSK9 [12], 321000 M⁻¹ s⁻¹; in test [13], 591000 M⁻¹ s⁻¹. In test [9], this molecule returned a 50% inhibitory concentration (IC50) of 0.09 nM.

B8: lipocalin mutein SEQ ID NO: 4 (designed binder)
chain: ASDEEIQDVSGTWYLKAMTVDWQCDTGLWTSVTPMTLTTLEGGNLEAKVTMSYAGAFQEVKAVLEKTDEPGKYTADGGKHVAYIIRSHVKDHYIFYSEGECGGWPVPGVWLVGRDPKNNLEALEDFEKAAGARGLSTESILIPRQSETSSPGSAWSHPQFEK
notes: human tear lipocalin mutein
Take B8: the “IC50, restoration of labeled LDL uptake” value in test [1] stood at 85.8 nM. For the same molecule, the EC50 in test [2] stood at 2.4 nM; in test [3], 1.6 nM; with mouse PCSK9 [4], 21.8 nM. Binding in [5] was put at a Kd of 2.89 nM. This molecule also had an off-rate constant (koff) in [5] of 0.000139 s⁻¹. Also, the kon in test [5] was determined as 47900 M⁻¹ s⁻¹. Also, the IC50 in test [6] was determined as 6.2 nM; in test [7], 0.37 nM.

B9: lipocalin mutein SEQ ID NO: 8 (designed binder)
chain: ASDEEIQDVSGTWYLKAMTVDFKGPTPLWTSVTPMTLTTLEGGNLEAKVTMFHAGRSQEVKAVLEKTDEPGKYTAYGGRHVAYIIRSHVKDHYIFYSEGASVGNPVPGVWLVGRDPKNNLEALEDFEKAAGARGLSTESILIPRQSETSSPGSAWSHPQFEK
notes: human tear lipocalin mutein
B9: the “IC50, restoration of labeled LDL uptake” value in test [1] turned out to be 81.2 nM. Moreover, the values for the concentration giving a half-maximal response (EC50) (in test [2]; in test [3]; with mouse PCSK9 [4]) were 4.4 nM, 1.4 nM and 10.1 nM, respectively. The molecule also registered a Kd in test [5] of 8.96 nM. This molecule had a koff in [5] of 0.00138 s⁻¹. The molecule also had a kon in [5] of 154000 M⁻¹ s⁻¹. The IC50 amounted to 10.7 nM in test [6] and 0.32 nM in test [7].

B10: lipocalin mutein SEQ ID NO: 6 (designed binder)
chain: ASDEEIQDVSGTWYLKAMTVDFTDNSPMFTSVTPMTLTTLEGGNLEAKVTMQYAGRSQEVKAVLEKTDEPGKYTAIGGTHVAYIIRSHVKDHYIFYSEGAERGRPVPGVWLVGRDPKNNLEALEDFEKAAGARGLSTESILIPRQSETSSPGSAWSHPQFEK
notes: human tear lipocalin mutein
For the molecule B10, the “IC50, restoration of labeled LDL uptake” value in test [1] is 44.5 nM. In addition, the EC50 in [2] stood at 3.1 nM; in test [3], 2.1 nM; with mouse PCSK9 [4] it was 20.1 nM. For the same molecule, the Kd in test [5] came to 4.1 nM. The same molecule returned a koff in test [5] of 0.000232 s⁻¹. Besides, the kon in test [5] came to 56600 M⁻¹ s⁻¹. Also, the IC50 in test [6] was found to be 10.1 nM; in test [7], 0.21 nM.
